Experimental data reported in publication PMC9579167, “Structure of the proteolytic enzyme PAPP-A with the endogenous inhibitor stanniocalcin-2 reveals its inhibitory mechanism” (Nature Communications, 2022).

Target: T1, wild-type human PAPP-A (human, UniProt Q13219 82-1627)
T1 construct: PAPP-A (pappalysin-1), human, wild type; Homodimer via C1210; also called dimeric PAPP-A; pcDNA3.1-PAPP-A; source: 293T cells, transient transfection, conditioned medium
Test: enzyme inhibition kinetics (Morrison Ki equation, competitive inhibition); inhibition of PAPP-A (50 pM) cleavage of 125I-IGFBP-4 (10 nM) with IGF2 (100 nM) by STC2(C120A); 50 mM Tris-HCl, 100 mM NaCl, 1 mM CaCl2, pH 7.5, 37 °C

T1 sequence (Q13219 82-1627): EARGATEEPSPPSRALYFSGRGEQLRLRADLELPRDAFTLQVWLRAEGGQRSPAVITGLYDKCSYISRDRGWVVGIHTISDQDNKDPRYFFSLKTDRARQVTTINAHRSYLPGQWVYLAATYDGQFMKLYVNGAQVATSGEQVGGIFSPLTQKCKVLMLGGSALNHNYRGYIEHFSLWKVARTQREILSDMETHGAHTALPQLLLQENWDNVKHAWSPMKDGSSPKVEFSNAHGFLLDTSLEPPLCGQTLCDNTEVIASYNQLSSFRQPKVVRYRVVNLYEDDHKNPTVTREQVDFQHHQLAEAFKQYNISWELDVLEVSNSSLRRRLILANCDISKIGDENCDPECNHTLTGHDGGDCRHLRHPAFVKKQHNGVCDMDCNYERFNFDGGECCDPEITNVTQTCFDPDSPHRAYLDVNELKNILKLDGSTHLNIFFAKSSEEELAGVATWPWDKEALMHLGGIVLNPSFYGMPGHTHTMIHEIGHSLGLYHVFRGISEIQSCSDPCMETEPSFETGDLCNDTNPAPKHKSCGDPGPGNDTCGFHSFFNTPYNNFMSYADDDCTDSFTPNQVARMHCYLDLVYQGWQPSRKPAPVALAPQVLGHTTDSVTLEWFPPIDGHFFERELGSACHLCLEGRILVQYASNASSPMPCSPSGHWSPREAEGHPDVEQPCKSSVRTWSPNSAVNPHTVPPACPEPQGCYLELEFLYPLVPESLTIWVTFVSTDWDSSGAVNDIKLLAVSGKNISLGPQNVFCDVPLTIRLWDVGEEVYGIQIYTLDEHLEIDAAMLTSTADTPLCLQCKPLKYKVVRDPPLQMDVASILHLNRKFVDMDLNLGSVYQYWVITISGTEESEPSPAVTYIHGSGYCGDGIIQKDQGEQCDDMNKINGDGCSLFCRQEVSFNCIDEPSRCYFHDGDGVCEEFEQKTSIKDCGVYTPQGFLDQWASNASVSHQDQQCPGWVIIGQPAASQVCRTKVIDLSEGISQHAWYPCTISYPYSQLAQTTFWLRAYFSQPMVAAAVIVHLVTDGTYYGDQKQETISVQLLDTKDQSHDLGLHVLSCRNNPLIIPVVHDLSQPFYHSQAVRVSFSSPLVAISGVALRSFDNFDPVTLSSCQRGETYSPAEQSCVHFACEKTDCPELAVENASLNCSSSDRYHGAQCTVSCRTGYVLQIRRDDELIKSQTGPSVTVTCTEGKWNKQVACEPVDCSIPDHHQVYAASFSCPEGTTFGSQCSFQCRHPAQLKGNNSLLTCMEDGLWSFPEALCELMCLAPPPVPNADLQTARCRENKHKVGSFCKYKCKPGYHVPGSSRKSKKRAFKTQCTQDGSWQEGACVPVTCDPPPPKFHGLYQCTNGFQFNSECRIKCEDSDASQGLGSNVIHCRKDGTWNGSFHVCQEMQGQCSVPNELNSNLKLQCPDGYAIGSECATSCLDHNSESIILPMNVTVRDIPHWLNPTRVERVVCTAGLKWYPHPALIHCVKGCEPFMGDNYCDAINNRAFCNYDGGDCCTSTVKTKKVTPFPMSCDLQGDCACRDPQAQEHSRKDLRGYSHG

B1: STC2 variant with C120 replaced by alanine (natural protein)
chain: not shown
notes: stanniocalcin-2, human; also called STC2(C120A); STC2_C120A; source: 293T cells, transient transfection
Question: B1 was tested. Which Ki did it give?
Answer: The Ki was 47.3 nM.
